Laboratory results published in the RNAGym collection of RNA variant scans (doi:10.1093/nar/gkz1192).
Read counts are not given, so values of variants with three or more changes are uncertain.

B1: CPEB3 Ribozyme (parent)
chain: UAACAGGGGGCCACAGCAGAAGCGUUCACGUCGCAGCCCCUGUCAGAUUCUGGUGAAUCUGCGAAUUCUGCUGUAUAUCUC

Variants of: B1
Test: self-cleavage, relative activity (ratio to wild type); higher = more cleavage; in vitro, sequencing
Summary of the method: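 Relative activity compares each variant's cleaved/total read fraction with that of the unmutated ribozyme. To get these fractions, barcoded CPEB3 ribozyme libraries from rounds of error-prone PCR were transcribed with T7 RNA polymerase for 5 hours at 37°C and then given 15 min of DNase I treatment before EDTA was added. The RNAs were reverse transcribed with template switching and sequenced on Illumina, and DNA sequencing linked barcodes to variants. A minimum of 5 reads applied, and three batches were averaged.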

Variant	self-cleavage
A28G U48C U54A A65U	0.09
A28G U51G A56U U72C U80C	0.26
A28G U66A U72C	0.18
A28G U49C A64G U74A U80C	0.56
A28G U31A A35G A47U U49C U72C	0.07
A28U U31A A45G U69A U78A	0.07
A28U A35G U49A U51A U54C G70U	0.18
A28G U48A U51A	0.14
A28U A45G A64G U72A	0.23
A28U A45G U67G	0.18
A28U A35C U51C U72A	0.15
A28G U69A A77G	0.21
A28U A64G U69C	0.21
A28G U54C U67C U80A	0.09
A28U A35G U58A U76C	0.84
A28G U43G U48C	0.09
A28U G36U A64G	0.17
A28U A35U G36A U72C	0.07
A28G U43C A56G C81U	0.21
A28G U51A A56G A57G	0.38
A28G U31A U60C	0.44

Variant	self-cleavage
A28G G53A U72A	0.32
A28G U74A U78C	1.21
A28G U67A U74A	0.25
A28G U69G U76C A77G	0.26
A28G U58A U72C	0.1
A28U C40U U54C	0.5
A28G U54C U60C A64G U69C	0.32
A28G U31C A45G	0.26
A28G U49C U69A	0.08
A28G U51G U58C C62U	0.11
A28G U51A U60C	0.2
A28G U49A U72C U76A	0.35
A28U C40A U67C U72A	0.11
A28G U41A U78C	0.25
A28G U31A U72C	0.37
A28U C50U U54A U72C	1.07
A28G U31A C32U A47G U80A	0.24
A28G U41A U54C C68A U72C	0.09
A28G U43C C44U U69A U80C	0.24
A28G U41C U60G	0.13
A28G U41C U60A	0.25

Variant	self-cleavage
A28G U31G A77C	0.17
A28G U41A A77G	0.24
A28G U48C A57G	0.73
A28G U43A A75U U80C	0.7
A28U A47G C71G	0.23
A28G U31C A35G G55A A56G U60A	0.17
A28U G30U G70C U74A	0.06
A28G U58C U72C	0.24
A28U A35G C79U	1.41
A28G G46A U67G	0.12
A28U A57G A64U A75G U78C	0.09
A28G U49C A56G	0.41
A28U A45G U60A U67A U69A	0.11
A28U A45G A64G U69A U76C A77G	0.13
A28G U43C A57G	0.22
A28G G36A U67C U69A	0.34
A28U C34G U80C	0.09
A28G G55A A56G G63A	0.18
A28G U72C U80A	0.75
A28G U43C U69C	0.21
A28G U41A A65G U69A U78A	0.08

Variant	self-cleavage
A28G U48C U54A A77U	0.22
A28G U67G U69A	0.17
A28G U72A U74A U76C	0.87
A28G U41C U43C U48C U72A	0.04
A28G U41A U49A A56G U66C A77G	0.07
A28U A57U U78C U80C	0.39
A28U G33A A47G U51A A57C U60C C81G	0.01
A28G U31C G36A U51C	0.16
A28U G30A A64G U69C	0.1
A28G U60A A64C U69C	0.08
A28U G33A A77U	0.05
A28G U31C G33U A57G A64G U67A	0.17
A28U C34U A45C	0.09
A28G U31A A45G	0.18
A28U A65C G73C	0.11
A28G U60C A64U U76A	0.2
A28G U60C U78C U80G	0.2
A28G U41G U54C A65G	0.33
A28G U54C U67A	0.24
A28U C68G U72A	0.18
